± gives the standard deviation of the averaged measurements. Whole data set: some 33,000 sequences, median “E-score (dimensionless, -0.5 to 0.5)” near -0.046, cut for the highest 2% near 0.36. The list shows a part of the results.
What follows are sequences tested on T1, SpTbr T-box DNA-binding domain (GST fusion) (assay: PBM E-score of 8-mer (E-score (dimensionless, -0.5 to 0.5)); Tbr is Tbrain of the sea star Patiria miniata (Pm) or the sea urchin Strongylocentrotus purpuratus (Sp); higher = stronger binding preference; most listed sequences are background and not binding sites). Conditions: the construct has about 5 more residues each side.
T1 sequence: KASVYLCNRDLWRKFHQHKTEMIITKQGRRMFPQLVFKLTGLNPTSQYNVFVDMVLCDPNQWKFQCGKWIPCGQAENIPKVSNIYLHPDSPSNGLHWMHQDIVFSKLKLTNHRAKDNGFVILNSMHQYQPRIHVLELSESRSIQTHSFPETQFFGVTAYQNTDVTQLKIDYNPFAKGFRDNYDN
Summary of the method: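 Universal Agilent oligonucleotide arrays, made double-stranded by primer extension, were incubated with 200 nM GST-fused Tbr T-box DNA-binding domain in PBS (pH 7.5). The protein was expressed in BL21 E. coli at 20 °C and purified by glutathione affinity chromatography. After scanning and quantification, the Universal PBM Analysis Suite assigned an enrichment E-score to each ungapped 8-mer, averaged over duplicate arrays.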
CATTCTCC was tested, and the “PBM E-score of 8-mer” value was 0.014 ± 0.11. ACCCCCCG was tested, and the “PBM E-score of 8-mer” value was -0.0791 ± 0.031. For ACTATTTC, the “PBM E-score of 8-mer” value was -0.145 ± 0.082. GACTAGTA was tested, and the “PBM E-score of 8-mer” value was -0.075 ± 0.066. With CACTGTCG the “PBM E-score of 8-mer” value was 0.238 ± 0.036. GGCCAGCC was tested, and the “PBM E-score of 8-mer” value was -0.26 ± 0.018. With ACAAGCTC the “PBM E-score of 8-mer” value was 0.133 ± 0.034. CGAAGGAC was tested, and the “PBM E-score of 8-mer” value was -0.0744 ± 0.041. With ATTTATTA the “PBM E-score of 8-mer” value was -0.159 ± 0.029. For TTTGAAAA, the “PBM E-score of 8-mer” value was -0.208 ± 0.085. With AATCAGAA the “PBM E-score of 8-mer” value was -0.095 ± 0.048. With ATCTCCAT the “PBM E-score of 8-mer” value was -0.0861 ± 0.0063. AATTTGAG was tested, and the “PBM E-score of 8-mer” value was -0.194 ± 0.037. For GGACTGAC, the “PBM E-score of 8-mer” value was -0.000535 ± 0.011. TGGACAAA was tested, and the “PBM E-score of 8-mer” value was -0.0354 ± 0.075. CCACTGAC was tested, and the “PBM E-score of 8-mer” value was 0.101 ± 0.0056. With CCGTTTCG the “PBM E-score of 8-mer” value was -0.141 ± 0.013. AATTCGAC was tested, and the “PBM E-score of 8-mer” value was -0.0571 ± 0.079. ACAGTTCG was tested, and the “PBM E-score of 8-mer” value was 0.165 ± 0.021. With CGCACCGA the “PBM E-score of 8-mer” value was 0.0672 ± 0.045. For GATATCAC, the “PBM E-score of 8-mer” value was 0.3 ± 0.021. For CGTTGCAC, the “PBM E-score of 8-mer” value was 0.094 ± 0.039. In the case of CTTGTGCA, the “PBM E-score of 8-mer” value is reported as -0.00134 ± 0.032. In the case of AGAGCGTA, the “PBM E-score of 8-mer” value is reported as -0.278 ± 0.12. For TACGATGA, the “PBM E-score of 8-mer” value was -0.0506 ± 0.02. With ACCCTACC the “PBM E-score of 8-mer” value was -0.026 ± 0.0052. With CCTGTAGC the “PBM E-score of 8-mer” value was 0.0675 ± 0.014. CTCTGGGC was tested, and the “PBM E-score of 8-mer” value was -0.112 ± 0.012. GCCTTAAC was tested, and the “PBM E-score of 8-mer” value was 0.127 ± 0.045. For AGGGGTAA, the “PBM E-score of 8-mer” value was -0.151 ± 0.032. In the case of AACACCGG, the “PBM E-score of 8-mer” value is reported as 0.118 ± 0.015. In the case of CGAGGCGC, the “PBM E-score of 8-mer” value is reported as 0.283 ± 0.015. In the case of AACCGGGG, the “PBM E-score of 8-mer” value is reported as -0.0647 ± 0.073. With AATGACGC the “PBM E-score of 8-mer” value was 0.242 ± 0.043. In the case of GACGCGCA, the “PBM E-score of 8-mer” value is reported as -0.0276 ± 0.11. ATCGAGAG was tested, and the “PBM E-score of 8-mer” value was 0.105 ± 0.035. For AGTGAGCA, the “PBM E-score of 8-mer” value was 0.116 ± 0.021. With CGACGCGC the “PBM E-score of 8-mer” value was 0.176 ± 0.09. With TATCATAA the “PBM E-score of 8-mer” value was -0.0751 ± 0.07. In the case of CGAACCGC, the “PBM E-score of 8-mer” value is reported as -0.091 ± 0.048. GCGCACAC was tested, and the “PBM E-score of 8-mer” value was 0.161 ± 0.1. With CGCAACGC the “PBM E-score of 8-mer” value was 0.0732 ± 0.015. ACAGTTTA was tested, and the “PBM E-score of 8-mer” value was 0.161 ± 0.046. In the case of CAAGTCAC, the “PBM E-score of 8-mer” value is reported as 0.3 ± 0.032. In the case of GAGCACCC, the “PBM E-score of 8-mer” value is reported as -0.116 ± 0.053. In the case of GGGGATAC, the “PBM E-score of 8-mer” value is reported as -0.0955 ± 0.041. CAGATTTC was tested, and the “PBM E-score of 8-mer” value was 0.0172 ± 0.052. For CCTAGAGC, the “PBM E-score of 8-mer” value was -0.0995 ± 0.036. With CACGCCTA the “PBM E-score of 8-mer” value was 0.375 ± 0.016. For CGGATTAC, the “PBM E-score of 8-mer” value was -0.127 ± 0.026. In the case of GGCTTTCA, the “PBM E-score of 8-mer” value is reported as 0.0117 ± 0.036. For GTTTCACA, the “PBM E-score of 8-mer” value was 0.38 ± 0.012. For CGTTGGAG, the “PBM E-score of 8-mer” value was 0.0313 ± 0.053. In the case of ACGTGCCC, the “PBM E-score of 8-mer” value is reported as -0.0699 ± 0.022. With GCCGCCCA the “PBM E-score of 8-mer” value was -0.173 ± 0.052. In the case of GACTGCCA, the “PBM E-score of 8-mer” value is reported as 0.172 ± 0.0054. AGTCAAAG was tested, and the “PBM E-score of 8-mer” value was -0.166 ± 0.052. ACGCACAA was tested, and the “PBM E-score of 8-mer” value was -0.0283 ± 0.052. In the case of AATGAAGG, the “PBM E-score of 8-mer” value is reported as -0.188 ± 0.031. For CCTCGATA, the “PBM E-score of 8-mer” value was -0.115 ± 0.0033. AGTCTGGA was tested, and the “PBM E-score of 8-mer” value was -0.204 ± 0.054. GCTTCCTA was tested, and the “PBM E-score of 8-mer” value was -0.188 ± 0.024. With AACAAACG the “PBM E-score of 8-mer” value was -0.0941 ± 0.046. TCTCTACA was tested, and the “PBM E-score of 8-mer” value was -0.0865 ± 0.0087. With GCGGTCCC the “PBM E-score of 8-mer” value was -0.153 ± 0.022. TTAGGGAA was tested, and the “PBM E-score of 8-mer” value was -0.198 ± 0.057. For CAGAGAAC, the “PBM E-score of 8-mer” value was -0.0778 ± 0.035. In the case of AGGCACGA, the “PBM E-score of 8-mer” value is reported as -0.0701 ± 0.047. ATGAAAGC was tested, and the “PBM E-score of 8-mer” value was -0.0202 ± 0.081. In the case of GCTTGAAA, the “PBM E-score of 8-mer” value is reported as -0.115 ± 0.018. In the case of GCGCTTCC, the “PBM E-score of 8-mer” value is reported as 0.11 ± 0.028. For ATAACGTC, the “PBM E-score of 8-mer” value was -0.0443 ± 0.024. With GGCAGACA the “PBM E-score of 8-mer” value was -0.0836 ± 0.051. With GCCCCAAA the “PBM E-score of 8-mer” value was 0.11 ± 0.05. With TCGCTTCA the “PBM E-score of 8-mer” value was 0.133 ± 0.037. CTTTGTCA was tested, and the “PBM E-score of 8-mer” value was 0.215 ± 0.029. For ACCGCAAG, the “PBM E-score of 8-mer” value was 0.0125 ± 0.0041. In the case of GATCATAC, the “PBM E-score of 8-mer” value is reported as 0.0294 ± 0.025. For AGGAATGG, the “PBM E-score of 8-mer” value was -0.177 ± 0.0048. For AGACTTCC, the “PBM E-score of 8-mer” value was -0.1389 ± 0.00085. AATACACC was tested, and the “PBM E-score of 8-mer” value was 0.0626 ± 0.014. For CGACCTAG, the “PBM E-score of 8-mer” value was 0.0184 ± 0.034. ATACAAGC was tested, and the “PBM E-score of 8-mer” value was -0.0763 ± 0.051. With CGACTGGC the “PBM E-score of 8-mer” value was 0.0378 ± 0.04. ACTTTATA was tested, and the “PBM E-score of 8-mer” value was -0.0694 ± 0.018. ACATGTGA was tested, and the “PBM E-score of 8-mer” value was 0.292 ± 0.054. For CAGGGTGG, the “PBM E-score of 8-mer” value was -0.011 ± 0.049. CTGTTGAC was tested, and the “PBM E-score of 8-mer” value was 0.148 ± 0.038. CAAAATAA was tested, and the “PBM E-score of 8-mer” value was -0.101 ± 0.024. ACGTCCTC was tested, and the “PBM E-score of 8-mer” value was -0.019 ± 0.036. In the case of AGATACGC, the “PBM E-score of 8-mer” value is reported as 0.0233 ± 0.019. In the case of CACATATC, the “PBM E-score of 8-mer” value is reported as 0.32 ± 0.011. For ATCTGAGA, the “PBM E-score of 8-mer” value was -0.11 ± 0.092. ATTCTACC was tested, and the “PBM E-score of 8-mer” value was -0.105 ± 0.03.

Reference: the supplement of paper PMC4166925
